Experimental data as given in PMC9119685.
No constants are given. Whether binding was seen depends on the method and setting. In cells and extracts the contact can be indirect.

Target: tripartite-motif family member 25 (TRIM25), wild type (human), Q14258
Assay: co-IP
Details: remark: other sources report otherwise

B1: zinc-finger antiviral protein, short splice variant (ZAP-S), Q7Z2W4-2 1-699 (protein)
chain: MADPEVCCFITKILCAHGGRMALDALLQEIALSEPQLCEVLQVAGPDRFVVLETGGEAGITRSVVATTRARVCRRKYCQRPCDNLHLCKLNLLGRCNYSQSERNLCKYSHEVLSEENFKVLKNHELSGLNKEELAVLLLQSDPFFMPEICKSYKGEGRQQICNQQPPCSRLHICDHFTRGNCRFPNCLRSHNLMDRKVLAIMREHGLNPDVVQNIQDICNSKHMQKNPPGPRAPSSHRRNMAYRARSKSRDRFFQGSQEFLASASASAERSCTPSPDQISHRASLEDAPVDDLTRKFTYLGSQDRARPPSGSSKATDLGGTSQAGTSQRFLENGSQEDLLHGNPGSTYLASNSTSAPNWKSLTSWTNDQGARRKTVFSPTLPAARSSLGSLQTPEAVTTRKGTGLLSSDYRIINGKSGTQDIQPGPLFNNNADGVATDITSTRSLNYKSTSSGHREISSPRIQDAGPASRDVQATGRIADDADPRVALVNDSLSDVTSTTSSRVDDHDSEEICLDHLCKGCPLNGSCSKVHFHLPYRWQMLIGKTWTDFEHMETIEKGYCNPGIHLCSVGSYTINFRVMSCDSFPIRRLSTPSSVTKPANSVFTTKWIWYWKNESGTWIQYGEEKDKRKNSNVDSSYLESLYQSCPRGVVPFQAGSRNYELSFQGMIQTNIASKTQKDVIRRPTFVPQWYVQQMKRGPE
- binding: no binding
